This is an account of results in a collection of fitness landscapes (doi:10.1016/j.celrep.2020.107928).

In all, about 81,000 sequences were measured (“one-hybrid fitness for binding NBS DNA”: median about -0.1, highest 2% from about 0.36 on). This is one part of the list. Some results are limits rather than exact numbers.

Sequences and labels used below:
B1: Caulobacter ParB omega fusion; a variant is named by its letters at X, in order, B8GW30 (parent)
chain: MESVVVGEPGMSEGRRGLGRGLSALLGEVDAAPAQAPGEQLGGSREAPIEILQRNPDQPRRTFREEDLEDLSNSIREKGVLQPILVRPSPDTAGEYQIVAGERAWRAAQRAGLKTVPIMVRELDDLAVLEIGIIENVQRADLNVLEEALSYKVLMEKFERTQENIAQTIGKSXSHVANXMRLLXLPDEVQSYLVSGELTAXHARAIAAAADPVALAKQIIEGGLSVRETEALARKAPNLSAGKSKGGRPPRVKDTDTQALESDLSSVLGLDVSIDHRGSTGTLTITYATLEQLDDLCNRLTRGI

This assay covers variants of B1. The assay is described as follows: one-hybrid fitness for binding NBS DNA (the Noc-binding site; scaled: cognate 1, non-cognate 0); higher = stronger binding. The note with it: with NBS DNA site. The method in brief:
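Fitness is the rescaled log change in variant-to-wild-type read ratio, measured by Illumina sequencing of plasmids before and after bacterial one-hybrid selection. The scale puts cognate at 1 and non-cognate at 0. Selection of Caulobacter ParB libraries, four specificity codons randomised, took place in E. coli USO with a HIS3 reporter, site 19 bp from the promoter, over 48 hours at 37°C on M9-minus-histidine with 0.1 mM IPTG and 5 mM 3-AT.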
For EYPS, the “one-hybrid fitness for binding NBS DNA” value was at most 0.2.
MPYC: the “one-hybrid fitness for binding NBS DNA” value is at most 0.2.
Regarding TTME, the “one-hybrid fitness for binding NBS DNA” value was at most 0.2.
For RHMM, the “one-hybrid fitness for binding NBS DNA” value was at most 0.2.
For PHPP, the “one-hybrid fitness for binding NBS DNA” value was at most 0.2.
Regarding VDMI, the “one-hybrid fitness for binding NBS DNA” value was at most 0.2.
As to QQAH, the “one-hybrid fitness for binding NBS DNA” value came out at 0.284.
As to RWCW, the “one-hybrid fitness for binding NBS DNA” value is at most 0.2.
As for IKPI, the “one-hybrid fitness for binding NBS DNA” value is at most 0.2.
Consider IKSE, for which the “one-hybrid fitness for binding NBS DNA” value was at most 0.2.
As for SVVY, the figure is at most 0.2; as for LRFG, at most 0.2.
With MQDN the figure was at most 0.2.
As for MSPD, the figure is at most 0.2.
Consider TRHL, for which the “one-hybrid fitness for binding NBS DNA” value was at most 0.2.
For the variant GEHT, the “one-hybrid fitness for binding NBS DNA” value is at most 0.2.
With RLGR the figure was 0.443; with PRIY, at most 0.2; with ITPS, at most 0.2.
With KMIT the figure was at most 0.2.
Take RHDV: the “one-hybrid fitness for binding NBS DNA” value was at most 0.2.
As for NNQG, the figure is at most 0.2; as for DGWM, at most 0.2; as for FFTN, at most 0.2.
On to SNLV, for which the “one-hybrid fitness for binding NBS DNA” value is at most 0.2.
As to DQAI, the “one-hybrid fitness for binding NBS DNA” value was at most 0.2.
As for NIQT, the figure is at most 0.2; as for QKVV, at most 0.2; as for ISTQ, at most 0.2.
With QHPR, the “one-hybrid fitness for binding NBS DNA” value was determined as 0.248.
In the case of SSVL, the “one-hybrid fitness for binding NBS DNA” value was at most 0.2.
For the variant SSMS, the “one-hybrid fitness for binding NBS DNA” value was at most 0.2.
Regarding RFPC, the “one-hybrid fitness for binding NBS DNA” value was at most 0.2.
On to GPYS, for which the “one-hybrid fitness for binding NBS DNA” value was at most 0.2.
With KAGW the figure was at most 0.2; with CMYM, at most 0.2.
As to VEWS, the “one-hybrid fitness for binding NBS DNA” value is at most 0.2.
As for FVLF, the figure is at most 0.2.
As for QGSS, the figure is at most 0.2; as for RKFD, at most 0.2; as for RIIK, at most 0.2.
As to EVQI, the “one-hybrid fitness for binding NBS DNA” value was at most 0.2.
With TRLT the figure was 0.219; with WHQG, at most 0.2.
As for DHPT, the figure is at most 0.2.
As for QCCR, the “one-hybrid fitness for binding NBS DNA” value came out at 0.599.
As for ENDM, the figure is at most 0.2; as for RMPC, at most 0.2.
As for FRWC, the figure is at most 0.2; as for TRMY, at most 0.2; as for VSQK, at most 0.2.
With PHFS the figure was at most 0.2.
In the case of GTEL, the “one-hybrid fitness for binding NBS DNA” value was at most 0.2.
In the case of AYRH, the “one-hybrid fitness for binding NBS DNA” value is at most 0.2.
For the variant IGHD, the “one-hybrid fitness for binding NBS DNA” value is at most 0.2.
As for AVRG, the figure is at most 0.2.
On to GRVH, for which the “one-hybrid fitness for binding NBS DNA” value is at most 0.2.
Take PGDT: the “one-hybrid fitness for binding NBS DNA” value is at most 0.2.
IKAF: the “one-hybrid fitness for binding NBS DNA” value is at most 0.2.
As for LSQR, the figure is at most 0.2.
Turning to VPYN, the “one-hybrid fitness for binding NBS DNA” value was at most 0.2.
With PPSL, the “one-hybrid fitness for binding NBS DNA” value was at most 0.2.
As for WSRD, the figure is at most 0.2; as for TLCI, at most 0.2.
For QGYR, the “one-hybrid fitness for binding NBS DNA” value is at most 0.2.
Take YRRF: the “one-hybrid fitness for binding NBS DNA” value was at most 0.2.
With RKTT the figure was 0.666; with RIAP, at most 0.2; with NAEM, at most 0.2.
As for GSMQ, the figure is at most 0.2.
As for DVIS, the “one-hybrid fitness for binding NBS DNA” value was at most 0.2.
For the variant PDHP, the “one-hybrid fitness for binding NBS DNA” value is at most 0.2.
For QILA, the “one-hybrid fitness for binding NBS DNA” value is at most 0.2.
As to PIPC, the “one-hybrid fitness for binding NBS DNA” value was at most 0.2.
QIAR: the “one-hybrid fitness for binding NBS DNA” value stood at 0.397.
With NTHE the figure was at most 0.2; with NKLF, at most 0.2; with RANS, 0.484.
With RDRG the figure was at most 0.2.
Regarding FGEY, the “one-hybrid fitness for binding NBS DNA” value is at most 0.2.
With GQAC, the “one-hybrid fitness for binding NBS DNA” value was at most 0.2.
On to NDHY, for which the “one-hybrid fitness for binding NBS DNA” value is at most 0.2.
Consider VHDR, for which the “one-hybrid fitness for binding NBS DNA” value is at most 0.2.
With RAMP the figure was at most 0.2; with KANF, at most 0.2.
For the variant KCSY, the “one-hybrid fitness for binding NBS DNA” value is at most 0.2.
With TRAE the figure was 0.251; with HRTE, at most 0.2.
With HEQL the figure was at most 0.2.
With CTSH the figure was at most 0.2; with FDSS, at most 0.2; with TFQE, at most 0.2.
In the case of LEVS, the “one-hybrid fitness for binding NBS DNA” value is at most 0.2.
As for RNIS, the figure is at most 0.2; as for SSHY, at most 0.2; as for TTQF, at most 0.2.
As for ANQE, the figure is at most 0.2.
With PNCS the figure was at most 0.2; with LCHM, at most 0.2.
With HETY, the “one-hybrid fitness for binding NBS DNA” value is at most 0.2.
As for EEKS, the figure is at most 0.2.
Turning to NFKC, the “one-hybrid fitness for binding NBS DNA” value is at most 0.2.
For DLDC, the “one-hybrid fitness for binding NBS DNA” value was at most 0.2.
With SSGW the figure was at most 0.2; with GPRA, at most 0.2; with LPTI, at most 0.2.
Regarding DDSG, the “one-hybrid fitness for binding NBS DNA” value was at most 0.2.
As for CPGM, the figure is at most 0.2; as for CYTA, at most 0.2; as for MENS, at most 0.2.
As for TNRM, the figure is at most 0.2.
As for QWHT, the figure is at most 0.2.
Turning to HNTC, the “one-hybrid fitness for binding NBS DNA” value was at most 0.2.
Take ATHT: the “one-hybrid fitness for binding NBS DNA” value is at most 0.2.
As for YMTC, the figure is at most 0.2.
For the variant CKAS, the “one-hybrid fitness for binding NBS DNA” value is at most 0.2.
For CQES, the “one-hybrid fitness for binding NBS DNA” value was at most 0.2.
On to PYSE, for which the “one-hybrid fitness for binding NBS DNA” value is at most 0.2.
As for LCTW, the figure is at most 0.2.
IHLL: the “one-hybrid fitness for binding NBS DNA” value is at most 0.2.
In the case of NGAS, the “one-hybrid fitness for binding NBS DNA” value was at most 0.2.
For QHQH, the “one-hybrid fitness for binding NBS DNA” value was at most 0.2.
For the variant SESC, the “one-hybrid fitness for binding NBS DNA” value is at most 0.2.
As for SKKC, the figure is at most 0.2.
Turning to HAKW, the “one-hybrid fitness for binding NBS DNA” value was at most 0.2.
In the case of FKPS, the “one-hybrid fitness for binding NBS DNA” value is at most 0.2.
As for ALHC, the figure is at most 0.2.
For DNES, the “one-hybrid fitness for binding NBS DNA” value was at most 0.2.
On to WMTP, for which the “one-hybrid fitness for binding NBS DNA” value was at most 0.2.
With GNMR the figure was at most 0.2.
As for YYLC, the figure is at most 0.2; as for ADCT, at most 0.2.
Consider LNER, for which the “one-hybrid fitness for binding NBS DNA” value is at most 0.2.
As for REAT, the figure is at most 0.2; as for RQVK, at most 0.2; as for IGTM, at most 0.2.
As for ERMS, the “one-hybrid fitness for binding NBS DNA” value was at most 0.2.
Turning to VKRH, the “one-hybrid fitness for binding NBS DNA” value was at most 0.2.
For ADIG, the “one-hybrid fitness for binding NBS DNA” value is at most 0.2.
Turning to AVDA, the “one-hybrid fitness for binding NBS DNA” value is at most 0.2.
As for SASA, the figure is at most 0.2; as for METV, at most 0.2; as for DNRA, at most 0.2.
As for TRET, the figure is at most 0.2.
With DNGT the figure was at most 0.2; with TCDP, at most 0.2; with LGLY, at most 0.2.
On to NPST, for which the “one-hybrid fitness for binding NBS DNA” value is at most 0.2.
As for QLFY, the figure is at most 0.2.
As for SLRE, the figure is at most 0.2.
Regarding CQQT, the “one-hybrid fitness for binding NBS DNA” value was at most 0.2.
In the case of MHRS, the “one-hybrid fitness for binding NBS DNA” value was at most 0.2.
Regarding RSQV, the “one-hybrid fitness for binding NBS DNA” value was at most 0.2.
